The results in this text go back to the supplement of paper PMC4604168 (melanoma cell lines).

The structures appear in SMILES notation. Some of the results follow. Repeats are few or missing, and single values can be far off.
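Note: cell number obtained by counting DAPI-stained nuclei in high-throughput microscope images with image analysis software, screen run in 1,536-well plates.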

For one experiment, the system named is RVH-421. In words: cell count relative to DMSO control; melanoma cells; higher = more viable cells. Conditions: library dose: low library concentration; 72 h.
For the compound `OCc1c[nH]c2ccccc12` [Indole-3-carbinol] + CN(C)S(=O)(=O)c1ccc2c(c1)/C(=C/c1cc3c([nH]1)CCCC3)C(=O)N2 [SU6656] (first compound 0.8 µM, partner dose 0.4 µM), the cell count is 89.5%. The same measure, in the same setting: then `COCC[n+]1c2c(n(Cc3cnccn3)c1C)C(=O)c1ccccc1C2=O` + NC(=O)Nc1cc(-c2cccc(F)c2)sc1C(=O)N[C@H]1CCCNC1 [AZD7762] (first compound 0.0004 µM, partner dose 0.02 µM), with 138%; and `Nc1cccc2c1CN(C1CCC(=O)NC1=O)C2=O` (centres undefined) [lenalidomide] + O=C(O)c1ccc(-c2c[nH]c3ncc(-c4ccccc4)cc23)cc1C1CCCC1 [GSK650394] (first compound 1 µM, partner dose 0.16 µM), with 105%; and `COCC[n+]1c2c(n(Cc3cnccn3)c1C)C(=O)c1ccccc1C2=O` + Cn1cncc1[C@@](N)(c1ccc(Cl)cc1)c1ccc2c(c1)c(-c1cccc(Cl)c1)cc(=O)n2C [tipifarnib] (first compound 0.0004 µM, partner dose 0.01 µM), with 92.5%.

The subject of the next experiment is SkMel28. The experiment is described as above. Conditions: library dose: low library concentration; 72 h.
Take `O=C(CCCCCCC(=O)Nc1ccccc1)NO` [vorinostat] + Cn1cncc1[C@@](N)(c1ccc(Cl)cc1)c1ccc2c(c1)c(-c1cccc(Cl)c1)cc(=O)n2C [tipifarnib] (first compound 0.08 µM, partner dose 0.01 µM): the cell count is 82.5%. On the same count and under the same terms, under `O=C(CCCCCCC(=O)Nc1ccccc1)NO` [vorinostat] + O=C(Nc1cccc(Cl)c1)Nc1ncc(CCNc2ncnc3ccsc23)s1 [SNS314] (first compound 0.08 µM, partner dose 0.0008 µM) stands 82.4%; under `Nc1cccc2c1CN(C1CCC(=O)NC1=O)C2=O` (centres undefined) [lenalidomide] + Cn1cncc1[C@@](N)(c1ccc(Cl)cc1)c1ccc2c(c1)c(-c1cccc(Cl)c1)cc(=O)n2C [tipifarnib] (first compound 1 µM, partner dose 0.01 µM), 88.9%; under `COCC[n+]1c2c(n(Cc3cnccn3)c1C)C(=O)c1ccccc1C2=O` + CC(C)(C)c1cnc(CSc2cnc(NC(=O)C3CCNCC3)s2)o1 [SNS-032] (first compound 0.0004 µM, partner dose 0.01 µM), 79.3%. In turn, `OCc1c[nH]c2ccccc12` [Indole-3-carbinol] + COC(=O)c1sccc1S(=O)(=O)Nc1ccc(Nc2ccccc2)cc1OC [GSK0660] (first compound 0.8 µM, partner dose 1 µM) came in with a cell count of 109%. The compound `COCC[n+]1c2c(n(Cc3cnccn3)c1C)C(=O)c1ccccc1C2=O` + CN(NC(=O)CC(=O)NN(C)C(=S)c1ccccc1)C(=S)c1ccccc1 [STA4783] (first compound 0.0004 µM, partner dose 0.006 µM) registered a cell count of 97%. In turn, `O=C(CCCCCCC(=O)Nc1ccccc1)NO` [vorinostat] + CO[C@@H]1[C@H](N(C)C(=O)c2ccccc2)C[C@H]2O[C@]1(C)n1c3ccccc3c3c4c(c5c6ccccc6n2c5c31)C(=O)NC4 [Midostaurin] (first compound 0.08 µM, partner dose 0.08 µM) gave a cell count of 73.3%. Compound `OCc1c[nH]c2ccccc12` [Indole-3-carbinol] + O=S(=O)(c1ccccc1)N(CC(F)(F)F)c1ccc(C(O)(C(F)(F)F)C(F)(F)F)cc1 [T0901317] (first compound 0.8 µM, partner dose 1.4 µM) gave a cell count of 72.4%. `C#Cc1cccc(Nc2ncnc3cc(OCCOC)c(OCCOC)cc23)c1` [erlotinib] + CC(C)(C)c1cnc(CSc2cnc(NC(=O)C3CCNCC3)s2)o1 [SNS-032] (first compound 0.8 µM, partner dose 0.01 µM) came in with a cell count of 108%. `OCc1c[nH]c2ccccc12` [Indole-3-carbinol] + Oc1cc(-c2nc(-c3ccccc3)[nH]c2-c2ccncc2)ccc1Cl [L779450] (first compound 0.8 µM, partner dose 0.2 µM) registered a cell count of 82.4%. `Clc1ccc(Nc2nnc(Cc3ccncc3)c3ccccc23)cc1` [vatalanib] + O=C1NC(=O)/C(=C/c2ccc(-c3ccc(F)cc3O)o2)S1 [AS252424] (first compound 2 µM, partner dose 1 µM) registered a cell count of 93.2%. Still for that read-out and setting: then `C#Cc1cccc(Nc2ncnc3cc(OCCOC)c(OCCOC)cc23)c1` [erlotinib] + CN(C)S(=O)(=O)c1ccc2c(c1)/C(=C/c1cc3c([nH]1)CCCC3)C(=O)N2 [SU6656] (first compound 0.8 µM, partner dose 0.4 µM), with 91.6%; and `Clc1ccc(Nc2nnc(Cc3ccncc3)c3ccccc23)cc1` [vatalanib] + O=C(Nc1cccc(Cl)c1)Nc1ncc(CCNc2ncnc3ccsc23)s1 [SNS314] (first compound 2 µM, partner dose 0.0008 µM), with 103%. Take `C#Cc1cccc(Nc2ncnc3cc(OCCOC)c(OCCOC)cc23)c1` [erlotinib] + Cc1ccc(NC(=O)c2cccc(N(C)C)c2)cc1NC(=O)c1ccc(O)cc1 [ZM336372] (first compound 0.8 µM, partner dose 2 µM): the cell count was 101%.

`Clc1ccc(Nc2nnc(Cc3ccncc3)c3ccccc23)cc1` [vatalanib] + CC1(C)NC(=O)N(c2ccc([N+](=O)[O-])c(C(F)(F)F)c2)C1=O [nilutamide] (first compound 2 µM, partner dose 1 µM) yielded a cell count of 88.8%.

In turn, `Clc1ccc(Nc2nnc(Cc3ccncc3)c3ccccc23)cc1` [vatalanib] + Cc1ccc(NC(=O)c2cccc(N(C)C)c2)cc1NC(=O)c1ccc(O)cc1 [ZM336372] (first compound 2 µM, partner dose 2 µM) came in with a cell count of 93.5%. Turning to `C#Cc1cccc(Nc2ncnc3cc(OCCOC)c(OCCOC)cc23)c1` [erlotinib] + COc1cc2c(Oc3ccc4[nH]c(C)cc4c3F)ncnc2cc1OCCCN1CCCC1 [cediranib] (first compound 0.8 µM, partner dose 0.4 µM), the cell count was 80.7%.

Turning to `Clc1ccc(Nc2nnc(Cc3ccncc3)c3ccccc23)cc1` [vatalanib] + CCc1ccc(CCOc2ccc(CC3SC(=O)NC3=O)cc2)nc1 [pioglitazone] (first compound 2 µM, partner dose 2 µM), the cell count came to 106%. On the same count and under the same terms, then `O=C(CCCCCCC(=O)Nc1ccccc1)NO` [vorinostat] + COc1cc2c(Oc3ccc4[nH]c(C)cc4c3F)ncnc2cc1OCCCN1CCCC1 [cediranib] (first compound 0.08 µM, partner dose 0.4 µM), with 89.9%; and `Nc1cccc2c1CN(C1CCC(=O)NC1=O)C2=O` (centres undefined) [lenalidomide] + O=C(Nc1cccc(Cl)c1)Nc1ncc(CCNc2ncnc3ccsc23)s1 [SNS314] (first compound 1 µM, partner dose 0.0008 µM), with 85.7%.

`Nc1cccc2c1CN(C1CCC(=O)NC1=O)C2=O` (centres undefined) [lenalidomide] + O=C(CCCCCCC(=O)Nc1ccccc1)NO [vorinostat] (first compound 1 µM, partner dose 0.08 µM): the cell count was determined as 72.9%. On to `COCC[n+]1c2c(n(Cc3cnccn3)c1C)C(=O)c1ccccc1C2=O` + COc1cc(Nc2ncc(F)c(Nc3ccc4c(n3)NC(=O)C(C)(C)O4)n2)cc(OC)c1OC [Tamatinib] (first compound 0.0004 µM, partner dose 0.4 µM), for which the cell count stood at 65.8%.

Take `O=C(CCCCCCC(=O)Nc1ccccc1)NO` [vorinostat] + O=C(O)c1ccc(-c2c[nH]c3ncc(-c4ccccc4)cc23)cc1C1CCCC1 [GSK650394] (first compound 0.08 µM, partner dose 0.16 µM): the cell count was found to be 82.1%. In turn, `Clc1ccc(Nc2nnc(Cc3ccncc3)c3ccccc23)cc1` [vatalanib] + O=C(O)C(=O)Nc1sc2c(c1C(=O)O)CCNC2 [TCS401] (first compound 2 µM, partner dose 1.66667 µM) registered a cell count of 95%. Compound `Clc1ccc(Nc2nnc(Cc3ccncc3)c3ccccc23)cc1` [vatalanib] + COc1ccc(COc2ccc(Cc3cnc(N)nc3N)cc2OC)cc1 [GW2580] (first compound 2 µM, partner dose 1 µM) registered a cell count of 101%. In turn, `Clc1ccc(Nc2nnc(Cc3ccncc3)c3ccccc23)cc1` [vatalanib] + Oc1cc(-c2nc(-c3ccccc3)[nH]c2-c2ccncc2)ccc1Cl [L779450] (first compound 2 µM, partner dose 0.2 µM) yielded a cell count of 79.6%. Compound `Clc1ccc(Nc2nnc(Cc3ccncc3)c3ccccc23)cc1` [vatalanib] + O=C(O)c1ccc(-c2c[nH]c3ncc(-c4ccccc4)cc23)cc1C1CCCC1 [GSK650394] (first compound 2 µM, partner dose 0.16 µM) displayed a cell count of 79.1%. On the same count and under the same terms, under `OCc1c[nH]c2ccccc12` [Indole-3-carbinol] + Cc1cc([N+](=O)[O-])ccc1NS(=O)(=O)c1cc(Cl)ccc1Cl [FH535] (first compound 0.8 µM, partner dose 1 µM) stands 85.7%; under `Clc1ccc(Nc2nnc(Cc3ccncc3)c3ccccc23)cc1` [vatalanib] + CC(C)(C)c1cnc(CSc2cnc(NC(=O)C3CCNCC3)s2)o1 [SNS-032] (first compound 2 µM, partner dose 0.01 µM), 78.4%; under `O=C(CCCCCCC(=O)Nc1ccccc1)NO` [vorinostat] + C[C@@H]1CCN(C(=O)CC#N)C[C@@H]1N(C)c1ncnc2[nH]ccc12 [CP690550] (first compound 0.08 µM, partner dose 1 µM), 92.8%.
